In PubChem BioAssay AID1347165 (National Center for Advancing Translational Sciences (NCATS), 2019):
In all, about 220,000 compounds went through this assay and about 5,700 (2.6%) were called active. This list was built around the results that the source calls inconclusive (neither active nor inactive); the mix of calls is not that of the screen. Calls come from the whole dose curve; as a rule, active = well fitted inhibition curve with a large enough effect; inconclusive = small, poorly fitted or top-dose-only effect; inactive = no such curve, though single readings can be large or run the other way. A potency beside an inconclusive call is a rough fit, not a confirmed value.

Each molecule was assayed against Lysine-specific demethylase 5B (Homo sapiens) (UniProt Q9UGL1) (assay: Primary screen for KDM5B Histone Demethylases FDH-coupled qHTS). Settings: FDH-coupled NADH fluorescence (FDH is formaldehyde dehydrogenase); activity change, negative = inhibition: at 57.7 µM (top of the series) unless noted.
Outline: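 Here, H3K4me3 peptide (12.5 µM in substrate mix) is demethylated by KDM5BΔAP, 200 nM final, after 10 min compound exposure. Formaldehyde product is coupled through FDH (0.25 U/mL in mix) to NADH fluorescence; 30-min ΔRFU feeds dose-response curves.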
Note: nearly all actives have a fitted effect of over 70% in size.
Potency is the fitted concentration of half-maximal effect; tags give direction and shape of the fitted curve.
Throughout, for activity change, negative = inhibition: 0% is about no effect.

Sequence of UniProt Q9UGL1 (Q9UGL1 whole entry, looked up): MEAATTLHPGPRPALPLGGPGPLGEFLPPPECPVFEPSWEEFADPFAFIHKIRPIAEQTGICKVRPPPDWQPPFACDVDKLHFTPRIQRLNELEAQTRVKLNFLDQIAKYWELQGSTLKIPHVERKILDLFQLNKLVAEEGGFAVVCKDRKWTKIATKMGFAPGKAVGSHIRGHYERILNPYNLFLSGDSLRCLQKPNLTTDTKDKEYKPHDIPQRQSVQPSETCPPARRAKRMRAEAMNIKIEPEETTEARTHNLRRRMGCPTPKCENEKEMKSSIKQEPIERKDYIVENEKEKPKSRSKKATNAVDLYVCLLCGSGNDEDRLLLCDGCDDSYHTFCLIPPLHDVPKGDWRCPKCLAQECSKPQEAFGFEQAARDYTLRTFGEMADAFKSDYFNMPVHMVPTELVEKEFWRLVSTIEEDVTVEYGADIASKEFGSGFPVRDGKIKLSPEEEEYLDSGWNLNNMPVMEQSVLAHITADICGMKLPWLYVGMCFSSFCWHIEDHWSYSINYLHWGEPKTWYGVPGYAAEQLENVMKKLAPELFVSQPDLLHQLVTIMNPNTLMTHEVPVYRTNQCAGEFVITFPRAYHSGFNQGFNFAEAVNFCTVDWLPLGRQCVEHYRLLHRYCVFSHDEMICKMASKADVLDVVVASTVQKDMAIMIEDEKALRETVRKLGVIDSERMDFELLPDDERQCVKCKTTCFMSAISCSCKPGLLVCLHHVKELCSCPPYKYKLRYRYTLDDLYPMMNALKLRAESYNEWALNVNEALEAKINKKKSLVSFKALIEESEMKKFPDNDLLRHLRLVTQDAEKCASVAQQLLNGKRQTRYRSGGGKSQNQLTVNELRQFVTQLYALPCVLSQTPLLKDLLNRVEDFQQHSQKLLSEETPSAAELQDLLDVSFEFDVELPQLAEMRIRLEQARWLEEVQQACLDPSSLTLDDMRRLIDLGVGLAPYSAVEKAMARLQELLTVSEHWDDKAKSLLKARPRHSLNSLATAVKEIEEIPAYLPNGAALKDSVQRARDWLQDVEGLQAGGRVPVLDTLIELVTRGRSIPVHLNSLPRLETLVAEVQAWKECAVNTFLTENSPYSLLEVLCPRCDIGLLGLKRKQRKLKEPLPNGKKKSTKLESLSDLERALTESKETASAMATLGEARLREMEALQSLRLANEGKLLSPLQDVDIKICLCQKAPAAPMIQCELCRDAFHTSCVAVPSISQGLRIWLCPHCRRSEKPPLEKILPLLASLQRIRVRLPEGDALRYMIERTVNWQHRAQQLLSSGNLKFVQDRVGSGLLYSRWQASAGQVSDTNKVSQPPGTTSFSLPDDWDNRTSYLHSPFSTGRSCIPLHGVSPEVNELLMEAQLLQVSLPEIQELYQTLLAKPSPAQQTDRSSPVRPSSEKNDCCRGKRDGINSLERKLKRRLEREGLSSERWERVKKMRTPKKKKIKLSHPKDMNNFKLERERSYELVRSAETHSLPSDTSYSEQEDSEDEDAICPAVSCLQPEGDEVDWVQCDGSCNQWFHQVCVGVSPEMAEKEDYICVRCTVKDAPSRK

SMILES | Potency | activity change, negative = inhibition
COc1cccc(/C=C/C(=O)Oc2ccc(C#N)cc2OC)c1 | inactive | 
O=C(c1ccco1)N1CCCC1c1nc(C2CCOCC2)no1 (configuration not stated) | inactive | 
O=C(NCC1CCCO1)c1ccc(Cn2c(SCc3ccc(F)cc3)nc3cccnc32)cc1 (configuration not stated) | inconclusive: 25.1 µM [inhibitor, single point] | 
Cc1cc(C)cc(Nc2sc(C(=O)c3ccccc3)c(N)c2S(=O)(=O)c2ccccc2)c1 | inconclusive: 22.4 µM [inhibitor, partial curve, poor fit] | 
CNC(=O)[C@@H]1C[C@@H](n2cc(CNC(=O)Nc3cccc(Cl)c3C)nn2)CN1 | inconclusive: 28.2 µM [inhibitor, partial curve, poor fit] | 
CCn1c(=O)c2cc(C(=O)Nc3ccc(OC)cc3OC)sc2c2ccccc21 | inconclusive: 22.4 µM [inhibitor, partial curve, poor fit] | 
CCCCc1cc(=O)oc2cc(OCC(=O)OCC)c(Cl)cc12 | inconclusive: 25.1 µM [inhibitor, single point] | 
Fc1cccc(-c2nc(CN3CCCC3c3ccsc3)co2)c1 (configuration not stated) | inactive | 
COc1ccc(Cl)cc1C(=O)Nc1ccc2c(c1)CCC(=O)N2 | inconclusive: 28.2 µM [inhibitor, partial curve] | 
Cc1cccc(OC[C@H]2C[C@@H](NC(=O)C3CCCC3)[C@H](O)[C@@H]2O)n1 | inactive | 
CCc1ccc(-c2csc(NC(=O)c3ccc4c(c3)NC(=O)C(C)S4)n2)cc1 (configuration not stated) | inconclusive: 39.8 µM [inhibitor, single point] | 
O=C(NNC(=O)C1CCCc2ccccc21)c1ccccc1Br (configuration not stated) | inactive | 
CC(=O)Nc1ccc(C2Nc3c(C)cc(C)cc3-c3cc(C)nn32)cc1 (configuration not stated) | inconclusive: 12.6 µM [inhibitor, partial curve, poor fit] | 
COc1ccc(CNC(=O)COC(=O)C2=Cc3ccccc3OC2)cc1 | inconclusive: 25.1 µM [inhibitor, single point] | 
COCCOc1ccnc(-c2noc([C@@H]3CCCN3C3CCN(C(C)=O)CC3)n2)c1 | inactive | 
O=S1(=O)c2c(NCc3ccco3)cccc2Oc2ccccc2CN1Cc1cn(Cc2ccccc2C(F)(F)F)nn1 | inconclusive: 25.1 µM [inhibitor, partial curve, poor fit] | 
Cc1ccc(C2=C(O)C(=O)N(c3ccc(F)cc3)C2c2ccc(C(=O)O)cc2)cc1 (configuration not stated) | inactive | 
CCOC(=O)C1CCN(C(=O)C2COC3(CCC(C)CC3)N2C(=O)c2cccc(C)c2)CC1 (configuration not stated) | inconclusive: 15.8 µM [inhibitor, partial curve, poor fit] | 
COc1ccc(-c2nc3c(c(=O)[nH]2)CCN(C(=O)c2ccc(OC)nc2)C3)cc1 | inconclusive: 35.5 µM [inhibitor, single point] | 
CC(=O)N1CCC2(CC1)Oc1ccc(Br)cc1C1CC(c3ccncc3)=NN12 (configuration not stated) | inconclusive: 25.1 µM [inhibitor, partial curve, poor fit] | 
O=C(NC1CCN(c2cc(-c3cccs3)[nH]n2)CC1)c1ccc(F)c(Cl)c1 | inconclusive: 28.2 µM [inhibitor, partial curve, poor fit] | 
CCCc1cc(=O)n2[nH]c(NCc3ccccc3OC)nc2n1 |  | inconclusive: -38% [inhibitor]
COCCCN(CCOC)Cc1ccccc1 | inactive | 

SMILES | Potency | activity change, negative = inhibition
CCOC(=O)C1=C(CS(=O)(=O)c2ccc(F)cc2)NC(=O)NC1c1ccc(OCC)c(OC)c1 (configuration not stated) | inactive | 
CC(C)CCNC(=O)[C@@H](c1ccccc1)N1Cc2ccccc2C1=O | inconclusive: 15.8 µM [inhibitor, partial curve, poor fit] | 
O=c1c2cc(-c3ccc(F)cc3)nn2ccn1CC(O)c1ccc2c(c1)OCO2 (configuration not stated) | active: 31.6 µM | 
CCOc1ccc(NC(=O)Cn2nnc(C(=O)Nc3ccc(OCC)cc3)c2N)cc1 | inconclusive: 20 µM [inhibitor, single point] | 
Cc1ccc(C2Cc3ccccc3N2)cc1 (configuration not stated) | inconclusive: 1.78 µM [inhibitor, partial curve, poor fit] | 
COc1ccc2cnn(CC(=O)NCc3ccccc3Cl)c(=O)c2c1OC | inactive | 
OC1(CN2CCCCC2)CCN(Cc2cccc(F)c2F)C1 (configuration not stated) | inactive | 
O=C(CCc1ccccc1)NCc1nnc2c(-c3nc(C4CC4)no3)cccn12 | active: 28.2 µM | 
CC1CCN([C@@H]2[C@H](O)[C@H](CO)O[C@@H]2CNC2CCCCC2)CC1 | inconclusive: 25.1 µM [inhibitor, partial curve, poor fit] | 
O=C(Cc1cccs1)N1CCN(c2ncnc3c2nnn3-c2ccccc2)CC1 | inconclusive: 35.5 µM [inhibitor, single point] | 
CCOC(=O)c1[nH]c2ccccc2c1NC(=O)CC(C)C | inconclusive: 20 µM [inhibitor, partial curve, poor fit] | 
COc1cccc(-n2c(SCc3ccccc3C)nc3c([nH]c4ccccc43)c2=O)c1 | inconclusive: 35.5 µM [inhibitor, single point] | 
CCc1ccc(-c2noc(CSc3ccc(S(=O)(=O)N4CCN(C)CC4)cn3)n2)cc1 | inactive | 
Cc1ccc(C)c(N2CCN(C(=O)CCS(=O)(=O)c3cc4c5c(c3)CCN5C(=O)CC4)CC2)c1 | inactive | 
N#Cc1ccc(S(=O)(=O)N2CCC(C(=O)Nc3nc4c(s3)CCC4)CC2)cc1 | inactive | 
COc1cccc(Cn2c(=O)n(-c3ccccc3C)c(=O)c3c2c2cc(C)ccc2n3C)c1 | inconclusive: 17.8 µM [inhibitor, partial curve, poor fit] | 
Cc1ccc2c(c1)N1C(=O)OC[C@@H]1CCN(C(=O)c1ccno1)C2 | inconclusive: 39.8 µM [inhibitor, single point] | 
COc1ccc(Cl)cc1C(=O)Nc1ccc(-c2nnc3n2CCCCC3)cc1 |  | inconclusive: -34.6% [inhibitor]
COc1ccccc1CC(=O)N1CCc2nn(C)c(=O)n2CC1 | inactive | 
O=C(Nc1ccc(Cl)cc1)N1CCN(CCc2ccncc2)CC1 | inactive | 
Cc1cccc(CN2CCc3nc(N4CCN(c5ccccn5)CC4)ncc3C2)c1 | inconclusive: 15.8 µM [inhibitor, partial curve, poor fit] | 
Cc1c(C)n(Cc2ccccc2)c2ccc(C(=O)NCc3ccco3)cc12 | inconclusive: 25.1 µM [inhibitor, partial curve, poor fit] | 
CC(C)(CC(=O)O)CC(=O)N[C@H]1C[C@H]2C(=O)Nc3ccc(/C=C/c4ccccc4)cc3C(=O)N2C1 | active: 28.2 µM | 

SMILES | Potency | activity change, negative = inhibition
O=C(NC[C@H]1Cn2c(-c3ccccc3)cnc2CO1)C1CCOCC1 | inactive | 
COc1ccc(OC)c(S(=O)(=O)N2CCN(c3cc(N4CCCC4)nc(C)n3)CC2)c1 | inactive | 
O=C(c1ccc2ccccc2n1)N1CCOC(C(F)(F)F)C1 (configuration not stated) | inactive | 
CCCN1C(C(C)=O)=C(OC(=O)c2ccccc2)c2ccccc2S1(=O)=O | inactive | 
Cc1nnn2c(C(=O)Nc3ccc(F)cc3)cccc12 | inconclusive: 56.2 µM [inhibitor, single point] | 
Cc1ccc2[nH]cc(CCNC(=O)c3ccc(F)c(F)c3)c2c1 | inactive | 
O=C(CC1C(=O)NCCN1CC(c1ccccc1)c1ccccc1)NCc1ccco1 (configuration not stated) | inconclusive: 14.1 µM [inhibitor, partial curve, poor fit] | 
COCCNC(=O)c1ccc(N2CC3CC(C2)[C@H]2CCCC(=O)N2C3)nc1 (some centres not stated) | inconclusive: 25.1 µM [inhibitor, single point] | 
O=[N+]([O-])c1ccc(-c2ncc[nH]2)cc1 | inconclusive: 141 µM [inhibitor, partial curve, poor fit] | 
Cc1oc2c(c1C(=O)N1CCOCC1)CN(C(=O)c1ccnn1C)CC2 | inconclusive: 39.8 µM [inhibitor, partial curve, poor fit] | 
Fc1ccc2nc([C@H]3CCN(Cc4cccs4)C3)[nH]c2c1 | inactive | 
CCOC(=O)c1c(NC(=O)COC(=O)c2ccccc2NC)sc(C(=O)N(C)C)c1C | inconclusive: 31.6 µM [inhibitor, partial curve, poor fit] | 
COc1ccc(CC(=O)N2CCN(c3nc4ncccc4o3)CC2)cc1 | inconclusive: 35.5 µM [inhibitor, single point] | 
CC1=C(C(=O)OC(C)C)C(c2ccccc2C)N2C(CC(=O)N3CCCC3)=CSC2=N1 (configuration not stated) | inconclusive: 25.1 µM [inhibitor, partial curve, poor fit] | 
CC(C)(C)c1ccc(-c2nc(C#N)c(NCC3CCCO3)o2)cc1 (configuration not stated) | inconclusive: 25.1 µM [inhibitor, partial curve, poor fit] | 
Cc1ccccc1-c1[nH]nc2ncc(-c3ccccc3C#N)nc12 | inconclusive: 25.1 µM [inhibitor, partial curve] | 
Cc1ccc(OCC(=O)N2CCCC(CN3CCCC3)CC2)cc1 (configuration not stated) | inconclusive: 15.8 µM [inhibitor, partial curve] | 
N#Cc1cccc(C(=O)NC2CCN(c3cc(-c4ccc(F)cc4)[nH]n3)CC2)c1 | inactive | 
CCC1=C(C(=O)OC)C(c2cccc(C)c2)N2C(CC(=O)N3CCCCC3C)=CSC2=N1 (configuration not stated) | inconclusive: 31.6 µM [inhibitor, partial curve, poor fit] | 
O=C(N/N=C/c1coc2ccccc2c1=O)c1cc(Br)c(O)c(Br)c1 | inconclusive: 25.1 µM [inhibitor, partial curve, poor fit] | 
O[C@@H]1C[C@@H](c2nc(Cc3ccccc3)no2)N(Cc2cc3ccccc3o2)C1 | inconclusive: 31.6 µM [inhibitor, single point] | 
